Measured values: the supplement of paper PMC11417369
± gives the standard deviation of the averaged measurements. This is one part of the list.

Tested on: PfAP2-G AP2 domain (GST-tagged)
Test: gcPBM binding intensity (ln(normalized median fluorescence intensity)); higher = stronger DNA binding
Method in brief: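 GST-fused DNA-binding domains of P. falciparum, expressed in E. coli, were applied at about 25 μg on average for 1 h to an Agilent 4 × 180k array of primer-extended double-stranded 36-bp intergenic genomic probes and negative controls. Binding intensity is the highest Masliner-normalised natural-log median intensity across replicate spots of either probe orientation, measured with Alexa488 anti-GST antibody and a 488 nm scan.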

Row | Sequence | gcPBM binding intensity (ln)
1 | TTTTTTAAATGTCATTGTACATAATTCAATATATAA [XGTACX_site5] | 10.8 ± 0.71
2 | TATATATATATTATATGTACACATTTGTGAATTATT [XGTACX_site5848] | 11.5 ± 0.85
3 | TGTACAAATTATACTTCGAACGAAGGGCATACATAT [XGTACX_negctrl_site37] | 10.7 ± 0.33
4 | TATTTGTGTATTTTTACACACATTAATATATTTATA [CACACA_site7562] | 9.9 ± 0.2
5 | TATATATATAAACACACACACACACCCAAGCGTAGC [CACACA_site4210] | 10.3 ± 0.23
6 | AACAACTATTACTGCACACATTCTTACACTATATAA [CACACA_site654] | 10.4 ± 0.24
7 | TATAGATAACAAAAGTGTACATGTTGTATACACATG [XGTACX_site3471] | 11.3 ± 0.98
8 | TATTCCTATATAAAGACACACATATGTAACTACGAT [CACACA_site4139] | 10.1 ± 0.21
9 | AAAAATTTAATTATTTGTACATAAAATACATTTCTG [XGTACX_site791] | 11 ± 0.38
10 | TGTGTTATATATAAAGAAAAAAAAAAAAAATATATA [CACACA_negctrl_site567] | 9.71 ± 0.14
11 | TATTTTAACATGTTTTCAAAAATAAAACATATAAAT [CACACA_negctrl_site1598] | 9.79 ± 0.26
12 | TAATATGACATAAGGGGTACTATATATATATATATT [XGTACX_site386] | 11.2 ± 0.75
13 | AAACATTTACTATATTGTACTTAAGATCTTATCGTA [XGTACX_site3919] | 11 ± 0.67
14 | ATTGGTGTATGTTTATGTACTTATCACAATTATGAA [XGTACX_site7055] | 11.2 ± 0.76
15 | ATATGTTCATTTAAAAGTACTTAATATAACATTTTT [XGTACX_site3332] | 11.1 ± 0.53
16 | AATAGGAAAAGAAAAGCACACACATAAATAAATATA [CACACA_site8062] | 9.9 ± 0.014
17 | GAACTTTACAACCCAACACACAAAAAAGAAAAGAAA [CACACA_site1717] | 10.2 ± 0.24
18 | TGTATATATAATAAAACACACATTTTTAATGTGCTC [CACACA_site1437] | 9.56 ± 0.15
19 | TCAAATTACTAAAATACACACATATTATAGATATAT [CACACA_site7233] | 9.62 ± 0.18
20 | TAAATACAAAAATGCACACGAAAAGTAATATATATA [CACACA_site6151] | 9.94
21 | GATAAAGTACTTTATACACACAAATATTTATATATA [CACACA_site3974] | 11.1 ± 0.86
22 | AAAAAGAAAATATATACACACCAAAAAAAAAAAAAA [CACACA_site5698] | 9.68 ± 0.29

Row | Sequence | gcPBM binding intensity (ln)
23 | GTTTTATAAAAAGGCGCACACATATACATAAATATA [CACACA_site1864] | 10.8 ± 0.56
24 | AATTTAAATCTTCAAAGTACTAAAAAAAAAAATAAT [XGTACX_site8566] | 10.9 ± 0.54
25 | ATCATATTTATATTGGTGCATTATGCATGAAATTTA [GTGCAC_site9571] | 10 ± 0.27
26 | TTAACATACACTCTAGTGCATATATATAACAAAATA [GTGCAC_site9724] | 9.935 ± 0.078
27 | ATTAAAACACAATATTCACACATGTATATTATATAT [CACACA_site5191] | 9.83 ± 0.13
28 | TTACACATGTATTTGGTGCATGTTGTTAACAAAATA | 10.1 ± 0.12
29 | AAACGATTAATGTGTACACACATAGTTATAAACATA [CACACA_site7073] | 11.7 ± 1.2
30 | AAAACTATTTCTTTCAGTACATATTTGGACTTATAT [XGTACX_site4977] | 11.2 ± 0.9
31 | TACTTTTATAAAAATTGTACAAAAAAAAAAAAAAAA [XGTACX_site2266] | 10.9 ± 0.8
32 | TATGTTATAAAATATATATTATAATATGTATATATA [XGTACX_negctrl_site233] | 9.63 ± 0.014
33 | TATGCTTTGATGAAGACACACATATAGAAGCGTATT [CACACA_site1925] | 9.99 ± 0.028
34 | CGCCCACAGATATATACACACATATATAAATAAATA [CACACA_site6877] | 10.1 ± 0.3
35 | TAAATAAATACATACACACACATACAGATATATATA [CACACA_site5690] | 9.985 ± 0.092
36 | ATAATAAGCAGACACACACACACAAAAAAAAAAAAA [CACACA_site6477] | 10.2 ± 0.63
37 | ATATAAATTTAATACACACCCAAAAAAAAAAAAAAA [CACACA_site3750] | 9.97 ± 0.47
38 | ATATACATATCAATGTAATATTATATACTTTTTTAG [CACACA_negctrl_site816] | 9.775 ± 0.035
39 | TTTTTTATTCCATAATATAATATGTTTTGAAATTTG [GTGCAC_negctrl_site440] | 9.86 ± 0.014
40 | AAACGAGAACATAATAAATACATAAATAAATAAATA [GTGCAC_negctrl_site433] | 9.75 ± 0.11
41 | AAAAAAATAAATAAATGTACATATATAAAACATTGT [XGTACX_site2136] | 11.1 ± 0.46
42 | ATATAATTATATTCCATACACACATATATTTAAAGG [CACACA_site2958] | 10.08 ± 0.042
43 | TTATTTATGAAGTATACACACAATATATATATATAT [CACACA_site1248] | 10.1 ± 0.19
44 | TTAATCCACAGACACACACACACAAAATAAAATACA [CACACA_site244] | 10.3 ± 0.39

Row | Sequence | gcPBM binding intensity (ln)
45 | TATATATTAAACTTTGCACACATAATTTAACTACAA [CACACA_site3440] | 10.1 ± 0.15
46 | TAGTTCTTTTAATTTAGTATTATACAATATTGGAAA [CACACA_negctrl_site521] | 9.95 ± 0.19
47 | AATATATTAAATATTACACACATACATTTAGTGTAA [CACACA_site5145] | 9.96 ± 0.12
48 | TTTATTTTATTCACTATCATAAGCAAAACTTAAACA [GTGCAC_negctrl_site287] | 9.89 ± 0.28
49 | ATTAATAATATTACATGTACATAATATAATTGAAAA [XGTACX_site5084] | 11.2 ± 0.73
50 | TGTATATGAAAAAATAGTACTCATATAAATATCTTT [XGTACX_site6542] | 11.2 ± 0.76
51 | ATAATATATTTATAAACACACAAAAAAAGTTATATA [CACACA_site6831] | 9.995 ± 0.049
52 | TAGTTAATATGATTATGTACATATATATATTAATTT [XGTACX_site1750] | 11.1 ± 0.46
53 | TTAGATATTATTATATGTACATATTATATGTATTAT [XGTACX_site3836] | 11.1 ± 0.69
54 | ATTTTTTTTTTTTTTTTTTTTTTTTTTTTTGTTGTT [CACACA_negctrl_site1313] | 9.62 ± 0.16
55 | AAAAAAAATACATGTTGTACGGTACAAATATAAAGT [XGTACX_site2863] | 11.1 ± 0.47
56 | ACAAAGATAAAACATAAAATATATCAAACATAAAAT [XGTACX_negctrl_site198] | 9.89 ± 0.11
57 | AATAAATATAAATACACACCCATATAAATATAAATA [CACACA_site7264] | 10 ± 0.028
58 | AAAAAAATAATAAAATGTACAAATAAACACATAAAG [XGTACX_site5102] | 10.8 ± 0.39
59 | AAATAAAATAAAACAACACACACGAATGTATAAATA [CACACA_site885] | 10 ± 0.13
60 | AAAATAATAAAAAAAAAAAAAAAAAAAAAAAAGTAT [TGCATGCA_negctrl_site193] | 9.795 ± 0.035
61 | ATATATCTTCTTTGCACACTTAAAGGGAAGTGATAA [CACACA_site342] | 10.2 ± 0.36
62 | TAATGTATCTAAAATTGTACAAATATAAATCTAAAT [XGTACX_site1197] | 11.1 ± 0.75
63 | CGCGCCCAGAAACACACACACACACCGATATATATA [CACACA_site5250] | 10.3 ± 0.38
64 | TGTGTTGTAATTAAAACACACATGAAAAAATTAAAA [CACACA_site51] | 9.96 ± 0.16
65 | GTATTATTCTATAGAAGTACAGTATATTATTATTTA [XGTACX_site5073] | 11.4 ± 1
66 | TATATACACGCACATACACACAAATAAAAAAACACC [CACACA_site7578] | 10.8 ± 0.59

Row | Sequence | gcPBM binding intensity (ln)
67 | TATAACAATTTTTATGCATGCGACTATAATATTTTT [TGCATGCA_site508] | 10 ± 0.099
68 | TACAACAAGTAATGGTGTACATTATATTATGTAATA [XGTACX_site1194] | 11.4 ± 0.56
69 | CATACACATATATATTGTACACATATATGTATGTAT [XGTACX_site4030] | 11.2 ± 0.69
70 | ATATTTTTTTTTTATTGTACCCTCATAAAAGAAAAG [XGTACX_site773] | 11.2 ± 0.85
71 | TAAGGATTGGTATAAAGTACAGGAGTAAATTGAAAA [XGTACX_site8525] | 11.2 ± 0.65
72 | TACATATTGAATAAGACACACATATATATATATATA [CACACA_site1878] | 10.2 ± 0.64
73 | TGTGCATAATTTTGTGCACACCACGCTAATAATTTT [CACACA_site2915] | 10.5 ± 0.38
74 | AAGCTTTCATAAAGATGTACTTTTTAAAAATAATCT [XGTACX_site5725] | 11.2 ± 0.91
75 | GGAATAAATAATATTATACACACGTATATTATTATA [CACACA_site2435] | 9.7 ± 0.16
76 | AATTTGTTGAAACACACACACACATACATATATATA [CACACA_site2287] | 10.26 ± 0.014
77 | TAAAATAATAAACAGAAGAAATCATTCATATAAAAA [XGTACX_negctrl_site502] | 9.635 ± 0.035
78 | AAAATAAAAAATTAATGTACTTAGAATTGTCACTAA [XGTACX_site1346] | 11.1 ± 0.61
79 | TTTTTCATGTTTATTAGTACATATATTAAGAATGGA [XGTACX_site3493] | 11 ± 0.72
80 | TTTTGTAAATATATATGTACATATATATATATATAT [XGTACX_site5803] | 11.4 ± 0.75
81 | ACCTATTTATAATAGTGTACGTACAAATTTGTTTAC [XGTACX_site8176] | 11.7 ± 0.89
82 | ATATTTATTTATAATTGTACTAATAATATATTTTAA [XGTACX_site587] | 11 ± 0.73
83 | ATGTATCTATATATATGTACACATATTTTAATTAAA [XGTACX_site3673] | 11.4 ± 0.85
84 | ATAAATATATGATAAAGTACATATTTATATAATAAA [XGTACX_site7263] | 11 ± 0.54
85 | TGATATTATATATATACACACATGTATGTATATATA [CACACA_site1364] | 9.8 ± 0.071
86 | AATTATTATCCCCTCACACACAAAAATAAAAAGAAT [CACACA_site2885] | 10.4 ± 0.3
87 | ATTTTTTATTGTTATAAAAAAAAAATTAAACAATTA [CACACA_negctrl_site1077] | 9.87 ± 0.15
88 | TATATCTATAATATTACACACATATATTTATATTTT [CACACA_site7595] | 9.795 ± 0.021
